# According to PubChem BioAssay (NCATS):
# “And” between values parts separate entries of the source, which are not always exact repeats. Equal values may be shown once. This list was built around the results that the source calls inconclusive (neither active nor inactive); the mix of calls is not that of the screen. For some of these results: Potencies of inconclusive entries are doubtful fits and often do not repeat. The source made the active and inactive calls. The call rests on the fitted dose curve; in most records, active means well fitted curve in the direction sought with a large enough effect; inconclusive means small, poorly fitted or top-dose-only effect, or another doubt; inactive means no such curve, though single readings can be large; an effect the other way counts as inactive or inconclusive.
# What was measured:
# CAOV3 = test: Primary qHTS to identify gynecologic anti-cancer compounds using libraries of approved drugs and bioactive compounds (AID 1345084); conditions: Gynecologic cancer cell panel viability, ATPlite luminescence, 48 h; series mostly up to 57.5 µM; further: nearly all actives have a fitted effect of over 55% in size; further: potency means the concentration at half of the fitted maximal effect
# Outline: (§1)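 In this quantitative HTS, cell killing is estimated from loss of ATP-dependent luciferase light. Cells see five compound concentrations over a 48 h exposure.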
# WaGa = test: qHTS assay to identify novel small-molecules to repurpose for Merkel cell carcinoma treatment (AID 1296009); conditions: MCC and control cell lines, CellTiter-Glo viability, 72 h; series mostly up to 46 µM; further: nearly all actives have a fitted effect of over 60% in size
# Outline: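 After compound transfer in DMSO, plates were kept 72 hr at 37 degree celsius. Luminescent ATP signal from CellTiter-Glo served as viability measure, normalized against DMSO and no-cell controls.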
# HeLa = test: Primary qHTS to identify gynecologic anti-cancer compounds using libraries of approved drugs and bioactive compounds (AID 1345084); conditions: Gynecologic cancer cell panel viability, ATPlite luminescence, 48 h; series mostly up to 57.5 µM; further: nearly all actives have a fitted effect of over 55% in size; further: potency means the concentration at half of the fitted maximal effect
# Outline: as §1
# Es-2 = test: as above; conditions: Gynecologic cancer cell panel viability, ATPlite luminescence, 48 h; series mostly up to 57.5 µM
# Outline: as §1
# CASKI = test: as above; conditions: Gynecologic cancer cell panel viability, ATPlite luminescence, 48 h; series mostly up to 57.5 µM
# Outline: as §1
# Tags describe the fitted curve by direction and shape.
compound,measurement,setting,value
CC1COc2c(N3CCN(C)CC3)c(F)cc3c(=O)c(C(=O)O)cn1c23 (configuration not stated),Potency,CAOV3,"inconclusive: 10 µM [rising, single point]"
CC(C)(C)NCC(O)c1ccc(O)c(CO)c1 (configuration not stated),Potency,WaGa,inactive
same,Potency,CAOV3,"inconclusive: 31.6 µM [rising, single point]"
same,Potency,HeLa,inactive
O=c1oc2c(O)c(O)cc3c(=O)oc4c(O)c(O)cc1c4c23,Potency,Es-2,inactive
Cn1cnc2c(F)c(Nc3ccc(Br)cc3Cl)c(C(=O)NOCCO)cc21,Potency,CASKI,"inactive and inconclusive: 25.1 µM [cytotoxic, partial curve, poor fit]"
same,Potency,Es-2,"inconclusive: 3.16 µM [cytotoxic, partial curve, poor fit] and inconclusive: 7.94 µM [cytotoxic, partial curve, poor fit]"
